This is one part of the list.
molecular target: T1, MBP-FoxP1dN (Mus musculus, UniProt P58462 326-579); experiment: PD-seq (MBP pull-down with sequencing); 20 mM Tris-HCl pH 7.5, 100 mM NaCl, 1.5 mM MgCl2, 0.4 uM protein, 0.1 uM dsDNA library, 30 min, room temperature, amylose pull-down; high values mean tight binding; details: protein: recombinant; tags: His6-MBP; chain copies: 2; dsDNA, one strand shown
T1 sequence: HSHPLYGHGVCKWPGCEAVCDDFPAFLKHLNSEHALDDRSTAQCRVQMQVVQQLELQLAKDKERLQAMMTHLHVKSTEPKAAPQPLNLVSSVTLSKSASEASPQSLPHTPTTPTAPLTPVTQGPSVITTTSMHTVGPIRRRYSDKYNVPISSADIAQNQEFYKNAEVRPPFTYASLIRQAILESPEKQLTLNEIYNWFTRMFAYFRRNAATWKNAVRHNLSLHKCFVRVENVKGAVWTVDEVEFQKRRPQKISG
Summary of the method: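 In Tris pH 7.5 buffer with NaCl and MgCl2, 0.4 µM His6-MBP-tagged mouse FoxP3 or FoxP1 fragment lacking the N-terminus, from E. coli, met 0.1 µM Klenow-filled double-stranded degenerate DNA library for 30 min at room temperature. Three washes on amylose resin followed capture of the complexes, then proteinase K release of DNA, PCR barcoding and Illumina sequencing. Binding is taken as pooled-replicate reads-per-million enrichment of pull-down relative to input.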

Sequence | binding signal
GATGATTGTTCTCCCAGCTGATGAATTTGCATCGTCGAGTAAACAAATTTTCCTAATCTTTCTGTTCAAGCGCCATCTAC | 1.28 RPM ratio (pull-down/input)
GATGATTGTTCTCCCAGCTGATGAATTTTAAACTTCGAGTAAACAAATTTTCCTAATCTTTCTGTTCAAGCGCCATCTAC | 0.891 RPM ratio (pull-down/input)
GATGATTGTTCTCCCAGCTGATGAATTACGAATATCGAGTAAACAAATTTTCCTAATCTTTCTGTTCAAGCGCCATCTAC | 1.17 RPM ratio (pull-down/input)
GATGATTGTTCTCCCAGCTGATGAATTCTCTGCGTCGAGTAAACAAATTTTCCTAATCTTTCTGTTCAAGCGCCATCTAC | 0.919 RPM ratio (pull-down/input)
GATGATTGTTCTCCCAGCTGATGAATTTCTCTCTTCGAGTAAACAAATTTTCCTAATCTTTCTGTTCAAGCGCCATCTAC | 0.876 RPM ratio (pull-down/input)
GATGATTGTTCTCCCAGCTGATGAATTTGGCTTTTCGAGTAAACAAATTTTCCTAATCTTTCTGTTCAAGCGCCATCTAC | 0.955 RPM ratio (pull-down/input)
GATGATTGTTCTCCCAGCTGATGAATTACCACGCTCGAGTAAACAAATTTTCCTAATCTTTCTGTTCAAGCGCCATCTAC | 1.04 RPM ratio (pull-down/input)
GATGATTGTTCTCCCAGCTGATGAATTTCTCATCTCGAGTAAACAAATTTTCCTAATCTTTCTGTTCAAGCGCCATCTAC | 0.872 RPM ratio (pull-down/input)
GATGATTGTTCTCCCAGCTGATGAATTCCGCGTATCGAGTAAACAAATTTTCCTAATCTTTCTGTTCAAGCGCCATCTAC | 0.845 RPM ratio (pull-down/input)
GATGATTGTTCTCCCAGCTGATGAATTGCTGCGATCGAGTAAACAAATTTTCCTAATCTTTCTGTTCAAGCGCCATCTAC | 1.03 RPM ratio (pull-down/input)
GATGATTGTTCTCCCAGCTGATGAATTGCTTTTTTCGAGTAAACAAATTTTCCTAATCTTTCTGTTCAAGCGCCATCTAC | 1.45 RPM ratio (pull-down/input)
GATGATTGTTCTCCCAGCTGATGAATTCAGAGTGTCGAGTAAACAAATTTTCCTAATCTTTCTGTTCAAGCGCCATCTAC | 0.854 RPM ratio (pull-down/input)
GATGATTGTTCTCCCAGCTGATGAATTACGGAAGTCGAGTAAACAAATTTTCCTAATCTTTCTGTTCAAGCGCCATCTAC | 1.05 RPM ratio (pull-down/input)
GATGATTGTTCTCCCAGCTGATGAATTGATGAGCTCGAGTAAACAAATTTTCCTAATCTTTCTGTTCAAGCGCCATCTAC | 0.908 RPM ratio (pull-down/input)
GATGATTGTTCTCCCAGCTGATGAATTGGCGACGTCGAGTAAACAAATTTTCCTAATCTTTCTGTTCAAGCGCCATCTAC | 0.882 RPM ratio (pull-down/input)
GATGATTGTTCTCCCAGCTGATGAATTAATCCGATCGAGTAAACAAATTTTCCTAATCTTTCTGTTCAAGCGCCATCTAC | 0.828 RPM ratio (pull-down/input)
GATGATTGTTCTCCCAGCTGATGAATTAAGGCGCTCGAGTAAACAAATTTTCCTAATCTTTCTGTTCAAGCGCCATCTAC | 0.87 RPM ratio (pull-down/input)
GATGATTGTTCTCCCAGCTGATGAATTATGGTTGTCGAGTAAACAAATTTTCCTAATCTTTCTGTTCAAGCGCCATCTAC | 1.26 RPM ratio (pull-down/input)
GATGATTGTTCTCCCAGCTGATGAATTGCATCGTTCGAGTAAACAAATTTTCCTAATCTTTCTGTTCAAGCGCCATCTAC | 1.42 RPM ratio (pull-down/input)
GATGATTGTTCTCCCAGCTGATGAATTGAACAAGTCGAGTAAACAAATTTTCCTAATCTTTCTGTTCAAGCGCCATCTAC | 0.814 RPM ratio (pull-down/input)
GATGATTGTTCTCCCAGCTGATGAATTCTTCCTTTCGAGTAAACAAATTTTCCTAATCTTTCTGTTCAAGCGCCATCTAC | 0.829 RPM ratio (pull-down/input)

Sequence | binding signal
GATGATTGTTCTCCCAGCTGATGAATTAGGATTATCGAGTAAACAAATTTTCCTAATCTTTCTGTTCAAGCGCCATCTAC | 1.02 RPM ratio (pull-down/input)
GATGATTGTTCTCCCAGCTGATGAATTATTTTTTTCGAGTAAACAAATTTTCCTAATCTTTCTGTTCAAGCGCCATCTAC | 1.5 RPM ratio (pull-down/input)
GATGATTGTTCTCCCAGCTGATGAATTGGAAAACTCGAGTAAACAAATTTTCCTAATCTTTCTGTTCAAGCGCCATCTAC | 0.867 RPM ratio (pull-down/input)
GATGATTGTTCTCCCAGCTGATGAATTAGTGTATTCGAGTAAACAAATTTTCCTAATCTTTCTGTTCAAGCGCCATCTAC | 1.47 RPM ratio (pull-down/input)
GATGATTGTTCTCCCAGCTGATGAATTGGACGTGTCGAGTAAACAAATTTTCCTAATCTTTCTGTTCAAGCGCCATCTAC | 0.855 RPM ratio (pull-down/input)
GATGATTGTTCTCCCAGCTGATGAATTATCGACATCGAGTAAACAAATTTTCCTAATCTTTCTGTTCAAGCGCCATCTAC | 1.03 RPM ratio (pull-down/input)
GATGATTGTTCTCCCAGCTGATGAATTGATGATGTCGAGTAAACAAATTTTCCTAATCTTTCTGTTCAAGCGCCATCTAC | 1.39 RPM ratio (pull-down/input)
GATGATTGTTCTCCCAGCTGATGAATTACCGGTGTCGAGTAAACAAATTTTCCTAATCTTTCTGTTCAAGCGCCATCTAC | 0.975 RPM ratio (pull-down/input)
GATGATTGTTCTCCCAGCTGATGAATTACTAAAATCGAGTAAACAAATTTTCCTAATCTTTCTGTTCAAGCGCCATCTAC | 1.34 RPM ratio (pull-down/input)
GATGATTGTTCTCCCAGCTGATGAATTTTCCAGGTCGAGTAAACAAATTTTCCTAATCTTTCTGTTCAAGCGCCATCTAC | 0.807 RPM ratio (pull-down/input)
GATGATTGTTCTCCCAGCTGATGAATTTAGCTTCTCGAGTAAACAAATTTTCCTAATCTTTCTGTTCAAGCGCCATCTAC | 0.934 RPM ratio (pull-down/input)
GATGATTGTTCTCCCAGCTGATGAATTTTAGCGTTCGAGTAAACAAATTTTCCTAATCTTTCTGTTCAAGCGCCATCTAC | 0.953 RPM ratio (pull-down/input)
GATGATTGTTCTCCCAGCTGATGAATTCTATCCTTCGAGTAAACAAATTTTCCTAATCTTTCTGTTCAAGCGCCATCTAC | 0.86 RPM ratio (pull-down/input)
GATGATTGTTCTCCCAGCTGATGAATTTATTCCTTCGAGTAAACAAATTTTCCTAATCTTTCTGTTCAAGCGCCATCTAC | 1.08 RPM ratio (pull-down/input)
GATGATTGTTCTCCCAGCTGATGAATTGCCGATCTCGAGTAAACAAATTTTCCTAATCTTTCTGTTCAAGCGCCATCTAC | 0.861 RPM ratio (pull-down/input)
GATGATTGTTCTCCCAGCTGATGAATTGGTATTATCGAGTAAACAAATTTTCCTAATCTTTCTGTTCAAGCGCCATCTAC | 1.9 RPM ratio (pull-down/input)
GATGATTGTTCTCCCAGCTGATGAATTCACAAGGTCGAGTAAACAAATTTTCCTAATCTTTCTGTTCAAGCGCCATCTAC | 0.82 RPM ratio (pull-down/input)
GATGATTGTTCTCCCAGCTGATGAATTTACCATTTCGAGTAAACAAATTTTCCTAATCTTTCTGTTCAAGCGCCATCTAC | 1.21 RPM ratio (pull-down/input)
GATGATTGTTCTCCCAGCTGATGAATTTGATAGGTCGAGTAAACAAATTTTCCTAATCTTTCTGTTCAAGCGCCATCTAC | 0.81 RPM ratio (pull-down/input)
GATGATTGTTCTCCCAGCTGATGAATTACGCTGTTCGAGTAAACAAATTTTCCTAATCTTTCTGTTCAAGCGCCATCTAC | 1.03 RPM ratio (pull-down/input)
GATGATTGTTCTCCCAGCTGATGAATTACCCAATTCGAGTAAACAAATTTTCCTAATCTTTCTGTTCAAGCGCCATCTAC | 1.04 RPM ratio (pull-down/input)

Sequence | binding signal
GATGATTGTTCTCCCAGCTGATGAATTTACGATTTCGAGTAAACAAATTTTCCTAATCTTTCTGTTCAAGCGCCATCTAC | 1.37 RPM ratio (pull-down/input)
GATGATTGTTCTCCCAGCTGATGAATTGCCTTAGTCGAGTAAACAAATTTTCCTAATCTTTCTGTTCAAGCGCCATCTAC | 0.943 RPM ratio (pull-down/input)
GATGATTGTTCTCCCAGCTGATGAATTTTAAGACTCGAGTAAACAAATTTTCCTAATCTTTCTGTTCAAGCGCCATCTAC | 0.904 RPM ratio (pull-down/input)
GATGATTGTTCTCCCAGCTGATGAATTGTACACGTCGAGTAAACAAATTTTCCTAATCTTTCTGTTCAAGCGCCATCTAC | 1.15 RPM ratio (pull-down/input)
GATGATTGTTCTCCCAGCTGATGAATTGCATTTCTCGAGTAAACAAATTTTCCTAATCTTTCTGTTCAAGCGCCATCTAC | 1.43 RPM ratio (pull-down/input)
GATGATTGTTCTCCCAGCTGATGAATTGTGGAGGTCGAGTAAACAAATTTTCCTAATCTTTCTGTTCAAGCGCCATCTAC | 0.81 RPM ratio (pull-down/input)
GATGATTGTTCTCCCAGCTGATGAATTGTCGGAGTCGAGTAAACAAATTTTCCTAATCTTTCTGTTCAAGCGCCATCTAC | 0.866 RPM ratio (pull-down/input)
GATGATTGTTCTCCCAGCTGATGAATTGGAGCTTTCGAGTAAACAAATTTTCCTAATCTTTCTGTTCAAGCGCCATCTAC | 0.893 RPM ratio (pull-down/input)
GATGATTGTTCTCCCAGCTGATGAATTCTATGGTTCGAGTAAACAAATTTTCCTAATCTTTCTGTTCAAGCGCCATCTAC | 0.91 RPM ratio (pull-down/input)
GATGATTGTTCTCCCAGCTGATGAATTCTACGTCTCGAGTAAACAAATTTTCCTAATCTTTCTGTTCAAGCGCCATCTAC | 0.821 RPM ratio (pull-down/input)
GATGATTGTTCTCCCAGCTGATGAATTTATCGCTTCGAGTAAACAAATTTTCCTAATCTTTCTGTTCAAGCGCCATCTAC | 1.1 RPM ratio (pull-down/input)
GATGATTGTTCTCCCAGCTGATGAATTCGATGCGTCGAGTAAACAAATTTTCCTAATCTTTCTGTTCAAGCGCCATCTAC | 1.12 RPM ratio (pull-down/input)
GATGATTGTTCTCCCAGCTGATGAATTTTTACGCTCGAGTAAACAAATTTTCCTAATCTTTCTGTTCAAGCGCCATCTAC | 0.907 RPM ratio (pull-down/input)
GATGATTGTTCTCCCAGCTGATGAATTCTAGGAATCGAGTAAACAAATTTTCCTAATCTTTCTGTTCAAGCGCCATCTAC | 0.962 RPM ratio (pull-down/input)
GATGATTGTTCTCCCAGCTGATGAATTGAAAGGATCGAGTAAACAAATTTTCCTAATCTTTCTGTTCAAGCGCCATCTAC | 0.776 RPM ratio (pull-down/input)
GATGATTGTTCTCCCAGCTGATGAATTGGCATAATCGAGTAAACAAATTTTCCTAATCTTTCTGTTCAAGCGCCATCTAC | 1.22 RPM ratio (pull-down/input)
GATGATTGTTCTCCCAGCTGATGAATTTCCTCCCTCGAGTAAACAAATTTTCCTAATCTTTCTGTTCAAGCGCCATCTAC | 0.834 RPM ratio (pull-down/input)
GATGATTGTTCTCCCAGCTGATGAATTCGCGGTCTCGAGTAAACAAATTTTCCTAATCTTTCTGTTCAAGCGCCATCTAC | 0.853 RPM ratio (pull-down/input)
GATGATTGTTCTCCCAGCTGATGAATTACACCACTCGAGTAAACAAATTTTCCTAATCTTTCTGTTCAAGCGCCATCTAC | 1.14 RPM ratio (pull-down/input)
GATGATTGTTCTCCCAGCTGATGAATTCATACGTTCGAGTAAACAAATTTTCCTAATCTTTCTGTTCAAGCGCCATCTAC | 1.04 RPM ratio (pull-down/input)
GATGATTGTTCTCCCAGCTGATGAATTAAGAGCGTCGAGTAAACAAATTTTCCTAATCTTTCTGTTCAAGCGCCATCTAC | 0.946 RPM ratio (pull-down/input)
